About 17,000 (4.4%) of roughly 390,000 compounds were called active. The shares of active, inactive and inconclusive entries below differ from those in the screen. The call rests on the fitted dose curve; in most records, active means well fitted inhibition curve with a large enough effect; inconclusive means small, poorly fitted or top-dose-only effect; inactive means no such curve, though single readings can be large or run the other way. Where the call is inconclusive, the potency comes from a doubtful curve fit.
biological target: Lysine-specific demethylase 4A (Homo sapiens) (UniProt O75164); assay: qHTS Assay for Inhibitors of JMJD2A-Tudor Domain; conditions: AlphaScreen JMJD2A-Tudor / H3K4me3 peptide binding; activity change, negative = inhibition: at 114 µM (top of the series); further: nearly all actives have a fitted effect of over 50% in size
Sequence of UniProt O75164 (O75164 whole entry, looked up, the tested form may be a part): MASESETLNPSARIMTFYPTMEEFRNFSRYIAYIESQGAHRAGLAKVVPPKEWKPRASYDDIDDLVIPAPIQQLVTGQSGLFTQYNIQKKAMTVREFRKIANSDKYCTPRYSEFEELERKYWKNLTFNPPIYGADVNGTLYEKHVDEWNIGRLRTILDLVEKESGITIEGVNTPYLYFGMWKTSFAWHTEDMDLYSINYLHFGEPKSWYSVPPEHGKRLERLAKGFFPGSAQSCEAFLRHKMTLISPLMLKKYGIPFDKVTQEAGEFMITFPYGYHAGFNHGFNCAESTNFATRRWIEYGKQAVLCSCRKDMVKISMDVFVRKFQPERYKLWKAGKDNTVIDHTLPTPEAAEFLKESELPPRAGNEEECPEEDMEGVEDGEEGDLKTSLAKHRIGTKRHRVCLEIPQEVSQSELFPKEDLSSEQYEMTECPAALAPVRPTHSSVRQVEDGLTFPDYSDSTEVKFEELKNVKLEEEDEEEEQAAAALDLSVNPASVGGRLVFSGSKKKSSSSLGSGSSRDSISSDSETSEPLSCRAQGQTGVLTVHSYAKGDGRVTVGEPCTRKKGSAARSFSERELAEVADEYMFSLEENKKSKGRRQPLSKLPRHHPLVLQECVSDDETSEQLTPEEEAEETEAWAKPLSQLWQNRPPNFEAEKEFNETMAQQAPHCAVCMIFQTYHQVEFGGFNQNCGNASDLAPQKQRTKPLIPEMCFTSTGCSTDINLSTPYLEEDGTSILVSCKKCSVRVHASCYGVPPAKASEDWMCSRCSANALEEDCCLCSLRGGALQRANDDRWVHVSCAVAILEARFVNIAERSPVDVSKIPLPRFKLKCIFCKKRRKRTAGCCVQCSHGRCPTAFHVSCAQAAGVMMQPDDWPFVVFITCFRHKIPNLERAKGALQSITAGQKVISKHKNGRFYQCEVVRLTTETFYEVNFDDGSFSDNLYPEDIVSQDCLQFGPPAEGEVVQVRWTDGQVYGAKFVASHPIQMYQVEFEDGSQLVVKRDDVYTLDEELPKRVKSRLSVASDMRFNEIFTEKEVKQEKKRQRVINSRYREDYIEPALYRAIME
On the % scale 0 is the no-effect control and ±100 the full control effect; potency means the concentration at half of the fitted maximal effect; tags describe the fitted curve by direction and shape.

| SMILES | Potency | activity change, negative = inhibition |
| --- | --- | --- |
| O=c1oc2cc(Oc3c([N+](=O)[O-])cc(C(F)(F)F)cc3[N+](=O)[O-])ccc2c2c1CCCC2 | inconclusive: 35.5 µM [inhibitor, partial curve] |  |
| O=S1(=O)CCO[C@H]2Cc3ccccc3[C@H]2N1Cc1cccc(C(F)(F)F)c1 | inconclusive: 39.8 µM [inhibitor, partial curve, poor fit] |  |
| CC(CN1CCN(C/C=C/c2ccccc2)CC1)c1ccccc1 (configuration not stated) | active: 12.6 µM |  |
| CCOc1ccccc1NC1=C(Cl)C(=O)N(c2ccc(OC)cc2)C1=O | inconclusive: 12.6 µM [inhibitor, full curve, poor fit] |  |
| COc1ccc(N=Cc2c(O)[nH]c3ccccc23)cc1OC | inconclusive: 56.2 µM [inhibitor, partial curve] |  |
| COc1ccc(Cn2ccc3nc(C)c(C(=O)Nc4cc(OC)c(OC)c(OC)c4)cc3c2=O)cc1 |  | inactive: -11.3% |
| CC(C(=O)Nc1ccc(F)c(F)c1)N1CCN(C)CC1 (configuration not stated) | active: 3.16 µM |  |
| CN(C)CCCN(C(=O)c1ccc(S(=O)(=O)N2CCCC2)cc1)c1nc2ccc(Br)cc2s1 | inconclusive: 56.2 µM [inhibitor, partial curve] |  |
| CC1(C)Cc2c(C#N)c(NCCN3CCOCC3)nc(-c3ccco3)c2CO1 |  | inactive: -9.02% |
| O=c1[nH]cnc2c1sc1nc(-c3ccccc3)c3c(c12)CCCC3 |  | inactive: -5.59% |
| Cc1ccc(-c2ccccc2)n1-c1cccc(C(=O)O)c1 | inconclusive: 79.4 µM [inhibitor, partial curve] |  |
| C=CCn1c(SCC(=O)c2cc(C)n(C(C)COC)c2C)nc2sc(C)c(C)c2c1=O (configuration not stated) | inconclusive: 14.1 µM [inhibitor, full curve, poor fit] |  |
| O=[N+]([O-])c1ccc(NCCCNS(=O)(=O)c2ccccc2)c(Cl)c1 | inconclusive: 39.8 µM [inhibitor, single point] |  |
| Cc1c(C(=O)NC2CCN(Cc3ccccc3)C2)oc2ccc(Br)cc12 (configuration not stated) | inconclusive: 56.2 µM [inhibitor, partial curve] |  |
| CC(Cl)C(=O)NNC(=O)CNS(=O)(=O)c1ccccc1 (configuration not stated) |  | inactive: -29% |
| CC(C)c1ccc(/C=N/N2CCCCC2)cc1 | inconclusive: 0.631 µM [inhibitor, full curve, poor fit] |  |
| CC[N+]1(CC)CC2CCC(C)(C1)C2(C)C (configuration not stated) | inconclusive: 35.5 µM [inhibitor, single point] |  |
| C#CCOCCOCCOCCNc1nc(N2CCN(C(=O)[C@H](CCCN=C(N)N)n3cc(C(N)[C@@H](C)CC)nn3)CC2)nc(N2CCN(C(=O)[C@H](CCC(=O)O)n3cc([C@@H](N)CO)nn3)CC2)n1 (some centres not stated) | active: 25.1 µM |  |
| COc1ccc(NC(=O)COC(=O)c2cc3c(s2)CCC3)cc1 | inconclusive: 56.2 µM [inhibitor, partial curve] |  |
| COc1cc(/C=C/C(=O)O)cc(S(=O)(=O)Nc2ccc(F)cc2)c1OC |  | inactive: 3.19% [at 57.1 µM] |
| CNc1cccnc1C=NNC(N)=S | active: 79.4 µM |  |
| CCOC(=O)N1CCc2c(sc(NCc3ccc(N(CC)CC)cc3)c2C(=O)Nc2cc(OC)ccc2OC)C1 | inconclusive: 10 µM [inhibitor, full curve] |  |
| CC1CC(C)(C)N(C(=O)CN2CCN(C)CC2)c2ccccc21 (configuration not stated) | active: 20 µM |  |
| CC(C)CNC(=O)C1CCN(Cc2ccc(OCc3ccccc3)cc2)CC1 | active: 1.12 µM |  |

| SMILES | Potency | activity change, negative = inhibition |
| --- | --- | --- |
| O=C(Nc1cccc(Cl)c1)N1CC2CCCN2c2ccccc21 (configuration not stated) | active: 14.1 µM |  |
| c1ccc(OCCOCCSc2ncccn2)cc1 |  | inactive: -1.35% |
| Cc1ccc(Cl)cc1N1CCN(c2nc3ccccc3c3nc(-c4cccnc4)nn23)CC1 |  | inactive: 4.73% |
| O=C(/C=C/c1cccs1)N1CCN(c2ccc(O)cc2)CC1 | inconclusive: 39.8 µM [inhibitor, single point] |  |
| Oc1cc(O)cc(/C=C/c2ccc(O)c(O)c2)c1 | active: 44.7 µM |  |
| CCOc1ccc(S(=O)(=O)Nc2cccc(C(=O)N3CCN(c4ccc(OC)cc4)CC3)c2)cc1 | inconclusive: 79.4 µM [inhibitor, partial curve] |  |
| O=C(COc1ccccc1)NCC(=O)N1CCCC1 |  | inactive: -2.83% |
| CC1(C)c2[nH]c3ccccc3c2C[C@@H]2C(=O)N(Cc3ccc(F)cc3)C(=O)N21 | inconclusive: 56.2 µM [inhibitor, partial curve] |  |
| Cn1nc(-c2cccnc2)nc2c(=O)n(C)c(=O)nc1-2 |  | inactive: -0.769% [at 57.1 µM] |
| CCN(Cc1ccccc1)C(=O)CSc1nc(C)cc(C)c1C#N | inconclusive: 44.7 µM [inhibitor, full curve, poor fit] |  |
| CCN1CCN(c2nc(Nc3cccc(OC)c3)nc(N)c2[N+](=O)[O-])CC1 | inconclusive: 63.1 µM [inhibitor, partial curve] |  |
| CCOc1ccccc1CNC(=O)c1ccc(-n2c(C)cc3c2CCC(C)C3)cc1 (configuration not stated) |  | inactive: -22.4% |
| COc1cccc(NC(=O)CCNC(=O)Cn2cnc3ccccc3c2=O)c1 |  | inactive: -13.4% |
| O=C(N/N=C/c1ccco1)c1cnccn1 | inconclusive: 100 µM [inhibitor, single point] |  |
| Cn1ncc2cc(NC(=S)NC(=O)c3ccccc3)ccc21 | inconclusive: 100 µM [inhibitor, single point] |  |
| COCCn1c(C)cc(C(=O)CSc2ccc3ccccc3n2)c1C | inconclusive: 56.2 µM [inhibitor, partial curve] |  |
| COc1cccc(Nc2nc(-c3sc(NC(=O)c4ccccc4)nc3C)cs2)c1 | active: 79.4 µM |  |
| CN(C)c1ccc(NS(=O)(=O)c2ccc(Cl)cc2)cc1 | active: 56.2 µM |  |
| COC(=O)C1=C(C)N(C)C(=O)NC1c1cc(Cl)c(O)c(OC)c1 (configuration not stated) |  | inactive: -13.5% |
| O=C(Nc1nnc(-c2ccncc2)o1)C1CCCCC1 | active: 20 µM |  |
| O=C1/C(=C\c2ccc(O)c(O)c2)N=C2CCCCCN12 | active: 3.16 µM |  |
| COCCn1c(SCC(=O)c2c(N)n(C3CC3)c(=O)[nH]c2=O)nnc1-c1ccc(Cl)cc1 | inconclusive: 20 µM [inhibitor, single point] |  |
| O=[N+]([O-])c1ccc(Cl)c(S(=O)(=O)/N=C(/Nc2cccnc2)c2ccccc2)c1 |  | inactive: -21.2% |
